# Results reported in PubChem BioAssay AID1963576 (National Center for Advancing Translational Sciences (NCATS), 2024).
# Among all 46,000 compounds or so, about 60 (0.1%) were called active. Inconclusive results (about 3%) are left out. Calls come from the whole dose curve; as a rule, active = well fitted inhibition curve with a large enough effect; inconclusive = small, poorly fitted or top-dose-only effect; inactive = no such curve, though single readings can be large or run the other way. This is one part of the list.
# Assay: Primary qHTS assay for Inhibitors of ovarian cancer metastasis using an organotypic tumor microenvironment (TME) model.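 For activity change, negative = inhibition: plate controls were DMSO wells for no effect and tomatine positive control wells for full effect.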 Note: nearly all actives have a fitted effect of over 65% in size.
# Settings: SKOV3ip1-GFP adhesion/invasion on 3D omental model, fluorescence; series mostly up to 45.8 µM; activity change, negative = inhibition: at the top concentration
# Procedure, shortened: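 Primary human omental fibroblast/mesothelial 3D culture pre-formed 48 h. SKOV3ip1-GFP cells added with compounds (0.36-46 umol/L), incubated 2 h RT/16 h 37 C, fixed; GFP cells quantified at 488/509 nm.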
Structure (SMILES),"activity change, negative = inhibition",outcome
Cc1cc(C)cc(-n2c(C)nc3cc(C(=O)NCc4ccccc4Cl)ccc32)c1,inactive: -20.1%,–
O=C(COc1ccccc1F)OCc1cc(=O)n2nc(C3CC3)sc2n1,inactive: 5.09%,–
Cc1oc2ncn(CC(C)C)c(=O)c2c1C(=O)NCCCN1CCC(C)CC1,–,inactive
COc1ccc(CCNC(=O)c2cnc3sc(N4CCCCC4)nn3c2=O)cc1OC,inactive: -1.88%,–
COc1ccc(-c2cc(C(=O)Oc3cccc(C)c3)c3cc(C)ccc3n2)cc1,inactive: 22.7%,–
Cc1ccc(C)c(-c2nnc(NC(=O)c3ccc4c(c3)OCCO4)o2)c1,–,inactive
CC(=O)Nc1ccc(Nc2nc3c(S(=O)(=O)c4cccc(Cl)c4)nnn3c3ccsc23)cc1,inactive: -6.26%,–
COc1ccc(CCNC(=O)Cn2c(=O)c3cccn3c3ccc(F)cc32)c(OC)c1,–,inactive
CCN(CC)Cc1c(NC(=O)c2ccc(OC)cc2)sc2c1CCCC2,inactive: -22.5%,–
Cc1nc2sc(C(=O)N(C)c3ccccc3)c(NC(=O)c3ccccc3Cl)c2c(C)c1C,inactive: 12%,–
CSc1ccc(C2c3c(oc4cc(C)cc(C)c4c3=O)C(=O)N2CCO)cc1 (stereo unspecified),inactive: 4.5%,–
CCCn1c(=O)c2c(nc3n2CCN3c2ccc(C)cc2)n(C)c1=O,inactive: -1.53%,–
CC[C@@H](C)[C@@H](C(=O)Nc1ccc(C)cc1)N1Cc2ccccc2C1=O,inactive: 2.77%,–
Cc1cc(C(C)Nc2ccccc2)c2nc(N3CCOCC3)cc(=O)n2c1 (stereo unspecified),inactive: -11.6%,–
CCOC(=O)c1c(NC(=O)c2cc(CC(C)C)on2)sc(C(C)=O)c1C,–,inactive
Cc1ccc(CN(C(=O)COc2ccc(Cl)cc2C)C2CCS(=O)(=O)C2)o1 (stereo unspecified),inactive: -14.4%,–
Cc1ccc(NC(=O)c2cc3c(=O)n(Cc4ccco4)ccc3nc2C)cc1C,–,inactive
COc1cn(CC(=O)Nc2ccccc2)c(CN2CCCCC2)cc1=O,inactive: -5.78%,–
CC(C)CCNC(=O)CCn1c(=O)c2cccn2c2cccnc21,inactive: -0.148%,–
Cc1ccc(OCC(=O)N(Cc2ccco2)Cc2ccco2)cc1C,–,inactive
COc1ccc(C2C(C(=O)Nc3ccccc3OC)=C(C)Nc3c(C(=O)Nc4ccccc4)cnn32)c(OC)c1 (stereo unspecified),–,inactive
Cc1ccc(NC(=O)c2c(C)oc3ccc(O)c(CN4CCOCC4)c23)c(C)c1,inactive: 18.1%,–
CCOc1ccc(NC(=O)N(Cc2c[nH]c3ccccc23)C2CCCCCC2)cc1,inactive: 4.99%,–
CCOc1ccc(-c2cc(-c3nc(-c4ccc(C)cc4)no3)[nH]n2)cc1,inactive: 2.25%,–

Structure (SMILES),"activity change, negative = inhibition",outcome
CCOc1cccc(OCCCn2c(-c3ccc(Br)cc3)nc3ccccc3c2=O)c1,–,inactive
COc1cccc(CNC(=O)c2ccc(NC(=O)N3CCCCc4ccccc43)cc2)c1OC,inactive: 8.28%,–
CC(=O)c1cccc(NC(=O)C(C)n2c(=O)cc(-c3ccccc3)c3c(C)nn(C)c32)c1 (stereo unspecified),inactive: -3.6%,–
CC1(C)[C@H]2CC[C@]3(C)[C@@H](C(=O)C=C4[C@@H]5C[C@@](C)(C(=O)O)CC[C@]5(C)CC[C@]43C)[C@@]2(C)CC[C@@H]1O,inactive: 17.7%,–
COc1cccc(CNC(=O)c2c(C)oc3nc(C)nc(N4CCOCC4)c23)c1,inactive: 8.78%,–
CCOC(=O)C1CCN(C(=O)CSc2n[nH]c(-c3ccc(F)cc3)n2)CC1,inactive: -7.39%,–
O=C(Cn1c(=O)oc2cc(S(=O)(=O)N3CCCC3)ccc21)NCc1ccc(F)cc1,inactive: 20.4%,–
CCc1cccc(C)c1NS(=O)(=O)c1c(C)nc2sccn2c1=O,inactive: 23.3%,–
O=C(O)CCCCCC(=O)NN=C1CCCC1,inactive: -8.17%,–
COC(=O)CSc1ncc2c(n1)-c1ccccc1N(Cc1cccc(F)c1)S2(=O)=O,inactive: 2.14%,–
CCN1C(=O)c2ccccc2S(=O)(=O)c2ccc(C(=O)NCc3ccccc3Cl)cc21,inactive: 8.13%,–
O=C(Cn1ccc2cc(S(=O)(=O)N3CCCCCC3)ccc21)NCCc1ccc(Cl)cc1,inactive: 2.76%,–
O=C(NC1CCCCCC1)C1c2ccccc2C(=O)N1Cc1ccccc1Cl (stereo unspecified),inactive: -4.35%,–
CCN(CC)S(=O)(=O)c1ccc2c(c1)N(CC(=O)N1CCN(c3ccc(Cl)cc3)CC1)C(=O)CO2,inactive: -7.82%,–
CCOC(=O)c1c(-c2ccccc2)csc1NC(=O)c1cc(-c2ccc(C)c(F)c2)on1,inactive: 0.794%,–
Cc1cccc(C(=O)Nc2ccc(OCc3cc(=O)n4ccsc4n3)cc2)c1,inactive: -6.46%,–
CC(C)OC(=O)c1cccnc1SCC(=O)Nc1ccc(C(F)(F)F)cc1Cl,inactive: 6.22%,–
Cc1ccc(Cl)cc1N1CCN(C(=O)CCCCCn2c(=O)[nH]c3ccccc3c2=O)CC1,inactive: 8.73%,–
CCc1ccc(NC(=O)C2CCCN(S(=O)(=O)c3c(C)noc3/C=C/N(C)C)C2)cc1 (stereo unspecified),inactive: -1.7%,–
CCOc1ccccc1-c1nc(SCC(=O)c2ccc(OC)c(Br)c2)n[nH]1,inactive: -0.725%,–
CCN1CCN(C(=O)c2ccc3c(c2)N(Cc2ccccc2F)C(=O)c2ccccc2S3=O)CC1 (stereo unspecified),inactive: 3.89%,–
Cc1ccc(-n2c3c(cc(C(=O)Nc4cccc(Cl)c4)c2=O)C(=O)CC(C)(C)C3)cc1,inactive: 10.4%,–
Cc1cc2c(cc3c(SCC(=O)Nc4cccc(Cl)c4C)nnc(C)n32)o1,inactive: -4.64%,–
CCc1ccc(C(=O)NC(Cc2c[nH]c3ccccc23)C(=O)OCC(=O)c2ccc(Br)cc2)cc1 (stereo unspecified),inactive: -9.64%,–

Structure (SMILES),"activity change, negative = inhibition",outcome
CCOC(=O)c1cnc2ccccc2c1Nc1cccc(OC)c1,inactive: 6.98%,–
COc1ccccc1N1CCN(C(=O)c2cnc(N3CCCCC3)c3ccccc23)CC1,–,inactive
O=c1c2sccc2n(Cc2cc(=O)n3ccccc3n2)c(=O)n1-c1cccc(C(F)(F)F)c1,inactive: -3.56%,–
Cc1ccc2oc(-c3cccc(NC(=O)c4sc5c([N+](=O)[O-])cccc5c4Cl)c3)nc2c1,inactive: 1.74%,–
Cc1cnc(=O)[nH]c1SCC(=O)Nc1nc2ccccc2s1,–,inactive
CCOc1ccc(CCNC(=O)c2c(C)oc3ncn(C)c(=O)c23)cc1,inactive: 6.57%,–
O=C(COc1ccc(F)cc1)NCCc1nc2ccccc2[nH]1,inactive: 3.19%,–
COc1ccc(/C=C/C(=O)Nc2ccc(Cl)c(Cl)c2)cc1,inactive: -14.6%,–
Cc1cc(-c2ccc(C)c(S(=O)(=O)Nc3cccc(C#N)c3)c2)on1,inactive: 2.51%,–
CCOC(=O)c1cc(-c2ccccc2)n(CCC(=O)Nc2nc3c(C)cccc3s2)c1C,inactive: 6.37%,–
Cc1ccc(Cl)cc1N1CCN(C(=O)c2ccc3nc(N4CCC(C)CC4)sc3c2)CC1,–,inactive
Cc1ccccc1NS(=O)(=O)c1ccc2[nH]c3c(c2c1)CCCCC3,inactive: 13%,–
CC(C)CCOc1ccccc1Cn1c(=O)sc2ccccc21,inactive: -2.8%,–
CC(=O)N1c2c(cc(Br)cc2S(=O)(=O)N2CCN(c3ccccc3)CC2)CC1C (stereo unspecified),–,inactive
Cc1ccc(-c2cc3c(N4CCN(c5cc(C)ccc5C)CC4)nccn3n2)cc1,inactive: -1.41%,–
Cn1c(=O)c2sccc2n2c(CCCC(=O)Nc3ccc(Oc4ccc(Cl)cc4)cc3)nnc12,inactive: -1.14%,–
Clc1ccc(C2(c3ccc(-c4cn[nH]c4)cc3)CCNCC2)cc1,inactive: -12.8%,–
CCOc1ccccc1CNC(=O)CCn1ccc2cc(S(=O)(=O)N3CCCCC3)ccc21,inactive: 2.1%,–
CCc1ccc(-n2c(=O)c3c(C)c(C(=O)N(C)C)sc3n(Cc3ccccc3F)c2=O)cc1,–,inactive
CCOC(=O)c1ccc(NC(=O)COc2cccc3c(=O)n(C)ccc23)cc1,inactive: -3.3%,–
O=S(=O)(c1ccc(F)cc1)N(Cc1nc(-c2ccccc2)no1)C1CCCCC1,inactive: -7.49%,–
COc1ccc(NC(=O)CN2CCN(CC(=O)Nc3ccccc3F)CC2)cc1OC,inactive: 7.76%,–
Cc1oc(-c2ccccc2Cl)nc1CS(=O)CC(=O)NCc1ccccc1Cl (stereo unspecified),–,inactive
COC(=O)c1ccc(NC(=O)C(=O)NCCc2csc(-c3ccc(C(F)(F)F)cc3)n2)cc1,–,inactive

Structure (SMILES),"activity change, negative = inhibition",outcome
COc1ccccc1CNC(=O)CSCc1nc(-c2ccc(OC)c(OC)c2)oc1C,inactive: 3.23%,–
CCOc1ccc(NC(=O)c2sc3nc4c(cc3c2N)CN(Cc2ccccc2)CC4)cc1,inactive: 3.97%,–
Cc1ccc(-n2nc(C(=O)Nc3ccc(Br)cc3C)c(=O)n(C)c2=O)cc1,inactive: 4.8%,–
CCOc1ccc(NC(=O)N2CCC(c3ccc(C)cc3)C2)cc1 (stereo unspecified),inactive: -4.08%,–
O=C(COc1ccc(F)cc1)Nc1ccc(C(=O)OCc2cc(=O)n3nc(C4CC4)sc3n2)cc1,inactive: -13.6%,–
Cc1cc(Cl)ccc1OCC(=O)N1CCC(c2nc3ccccc3o2)CC1,–,inactive
COc1ccccc1CNC(=O)C1CCN(S(=O)(=O)c2ccc3[nH]c(=O)ccc3c2)CC1,inactive: 9.2%,–
Cc1ccc(Cn2ccnc2SCC(=O)Nc2ccccc2C(F)(F)F)cc1,–,inactive
COc1ccc(OC)c(NC(=O)CCn2cccn2)c1,inactive: 19.5%,–
CCCn1c2ccccc2c2cnn(CC(=O)NCc3ccc(OC)cc3)c(=O)c21,–,inactive
CCOc1ccc(NC(=O)Cn2nc(SC)c(S(=O)(=O)c3ccccc3)c2N)cc1,inactive: -3.7%,–
O=C1CC(c2cccc(Cl)c2Cl)c2cc3c(cc2N1)OCCO3 (stereo unspecified),–,inactive
COc1cc(OC)c(NC(=O)Cn2c(SCc3ccccc3F)nc3cccnc32)cc1Cl,inactive: 6.4%,–
Cc1ccccc1Cn1nc(C)c(NC(=O)c2cc(CC(C)C)on2)c1C,inactive: -0.939%,–
CCc1nn(CC(=O)N2CCN(c3cccc(Cl)c3)CC2)c(=O)c2cc3sccc3n12,inactive: -5.55%,–
Cc1cc(C)nc(NS(=O)(=O)c2ccc(NC(=O)c3nc(SC(C)C)ncc3Cl)cc2)n1,inactive: 0.451%,–
Cc1c(Cl)cccc1-n1ncc(C(=O)N2CCC(C)CC2)c1C1CCN(C(=O)OC(C)(C)C)CC1,inactive: 22.2%,–
COC1CCC(C(=O)c2ccc3nc4c(cc3c2)CCCO4)CC1 (stereo unspecified),inactive: -10.1%,–
Cc1ccc(NC(=O)C2CCN(S(=O)(=O)c3ccc4c(c3)CCCN4C(=O)C3CCC3)CC2)cc1,inactive: 1.27%,–
Cc1oc(-c2ccc(C(=O)NCc3ccccc3F)cc2)nc1COc1ccccc1,inactive: 1.41%,–
CC(C)C(NS(=O)(=O)c1ccc2c(c1)oc(=O)n2C)C(=O)NCc1ccccc1 (stereo unspecified),–,inactive
CC(=O)c1ccc(N2CCN(C(=O)c3cc4c(s3)-c3ccccc3OC4)CC2)cc1,inactive: 6.84%,–
CCN(CC)c1ccc(NC(=O)CN2CCN(S(=O)(=O)c3cc(Cl)ccc3OC)CC2)cc1,inactive: 11.4%,–
CN(C(=O)C1CCN(c2ncnc3c2nc2n3CCCCC2)CC1)c1ccccc1F,inactive: 12%,–
